Measured values published in a collection of fitness landscapes (doi:10.1126/science.1257360).
The list shows a part of the results.

B1: PhoQ; a variant is named by its letters at X, in order, P23837 (parent)
chain: MKKLLRLFFPLSLRVRFLLATAAVVLVLSLAYGMVALIGYSVSFDKTTFRLLRGESNLFYTLAKWENNKLHVELPENIDKQSPTMTLIYDENGQLLWAQRDVPWLMKMIQPDWLKSNGFHEIEADVNDTSLLLSGDHSIQQQLQEVREDDDDAEMTHSVAVNVYPATSRMPKLTIVVVDTIPVELKSSYMVWSWFIYVLSANLLLVIPLLWVAAWWSLRPIEALAKEVRELEEHNRELLNPATTRELTSLVRNLNRLLKSERERYDKYRTTLTDLTHSLKTPLXXLQXXLRSLRSEKMSVSDAEPVMLEQISRISQQIGYYLHRASMRGGTLLSRELHPVAPLLDNLTSALNKVYQRKGVNISLDISPEISFVGEQNDFVEVMGNVLDNACKYCLEFVEISARQTDEHLYIVVEDDGPGIPLSKREVIFDRGQRVDTLRPGQGVGLAVAREITEQYEGKIVAGESMLGGARMEVIFGRQHSAPKDE

Variants of: B1
Test: enrichment ratio after two sorts for PhoP signalling (ratio (wild type AVST 3.29)); higher = more functional
Conditions: with PhoP (E. coli)

Variant	enrichment ratio
LTMI	0.673
VIME	≤ 0.25
IMAP	≤ 0.25
GHEY	≤ 0.25
TALP	0.47
TVAE	≤ 0.25
PNNN	≤ 0.25
QTAF	0.654
ISRN	≤ 0.25
WTPW	≤ 0.25
KIQE	≤ 0.25
NWVS	≤ 0.25
LSEK	≤ 0.25
RDRA	≤ 0.25
INIG	≤ 0.25
SHFE	≤ 0.25
DSGI	≤ 0.25
KFKP	≤ 0.25
VIFY	≤ 0.25
WEVD	≤ 0.25
IVLV	0.964
PQQR	≤ 0.25
IPAT	≤ 0.25
NMNY	≤ 0.25
DNHF	≤ 0.25
QGYY	0.374

Variant	enrichment ratio
PSYW	≤ 0.25
FMQI	≤ 0.25
SHAG	≤ 0.25
AFYF	≤ 0.25
NMFM	≤ 0.25
DRTK	≤ 0.25
VLGV	≤ 0.25
PKTS	≤ 0.25
SAIR	≤ 0.25
YRKI	≤ 0.25
FNEI	≤ 0.25
VMHR	≤ 0.25
KQWS	≤ 0.25
FVVI	≤ 0.25
MSAQ	9.85
SVCL	11
ATFG	≤ 0.25
ESYK	≤ 0.25
RALC	≤ 0.25
LANN	≤ 0.25
MNGL	9.61
YVEF	≤ 0.25
TIYA	0.91
KNAG	≤ 0.25
EFHM	≤ 0.25
VPFK	≤ 0.25

Variant	enrichment ratio
NGKP	≤ 0.25
DWEL	≤ 0.25
SGRW	≤ 0.25
VEPV	≤ 0.25
PIHY	≤ 0.25
KPTM	≤ 0.25
NDVI	≤ 0.25
IDDH	≤ 0.25
VKAF	≤ 0.25
WRWR	≤ 0.25
WMLY	≤ 0.25
RMPF	≤ 0.25
YILH	0.669
YIMM	≤ 0.25
DEAT	≤ 0.25
VLSN	≤ 0.25
DDLV	≤ 0.25
DDMI	≤ 0.25
GWWI	≤ 0.25
QHVI	≤ 0.25
FSTK	≤ 0.25
FMVR	≤ 0.25
MQGF	≤ 0.25
QQFG	20.2
TMGW	≤ 0.25
APIA	≤ 0.25

Variant	enrichment ratio
QKFI	0.998
TDTK	≤ 0.25
FEYE	≤ 0.25
DPNM	≤ 0.25
SYNM	≤ 0.25
IGMD	≤ 0.25
NSWR	≤ 0.25
LPTT	≤ 0.25
RLKA	≤ 0.25
FLHG	≤ 0.25
FNTS	≤ 0.25
FSHK	≤ 0.25
KRNF	≤ 0.25
SNLW	7.18
IIRC	≤ 0.25
ESRV	≤ 0.25
LLGP	≤ 0.25
NAWL	≤ 0.25
DDWE	≤ 0.25
YESA	≤ 0.25
DDQC	≤ 0.25
ESKN	≤ 0.25
VWMF	≤ 0.25
NRIL	≤ 0.25
YKPD	≤ 0.25
LDSY	≤ 0.25

Variant	enrichment ratio
RPVH	≤ 0.25
HQFW	≤ 0.25
FALP	≤ 0.25
FKNM	≤ 0.25
FATR	≤ 0.25
DQNW	≤ 0.25
HQCQ	≤ 0.25
PEYG	≤ 0.25
PLWC	≤ 0.25
MSHD	≤ 0.25
ENFS	≤ 0.25
AYLP	≤ 0.25
TCPL	≤ 0.25
RGRW	≤ 0.25
YNRQ	≤ 0.25
DQST	≤ 0.25
FHET	≤ 0.25
WRFD	≤ 0.25
DTSV	≤ 0.25
YTSA	≤ 0.25
PYHR	≤ 0.25
WRSV	≤ 0.25
LYLH	≤ 0.25
VIYA	≤ 0.25
LIAY	≤ 0.25
ARCM	8.7

Variant	enrichment ratio
KLSP	≤ 0.25
YHQK	≤ 0.25
WNNI	≤ 0.25
APSM	≤ 0.25
MMRI	≤ 0.25
EYAK	≤ 0.25
LENI	≤ 0.25
IIDP	≤ 0.25
LAET	≤ 0.25
QGVN	≤ 0.25
GWFK	≤ 0.25
KRQM	≤ 0.25
AQFQ	≤ 0.25
LFRK	≤ 0.25
IHEP	≤ 0.25
SWVV	≤ 0.25
RQPF	≤ 0.25
VNWD	≤ 0.25
QKHM	≤ 0.25
FEGF	≤ 0.25
WDQW	≤ 0.25
LLFF	≤ 0.25
VWLH	≤ 0.25
